The other results are listed elsewhere or left out. Cut-off read from the data, not from the text of the source: active = 3.2 or more and inactive = the rest. The signal is at background level for most entries.
Molecular target: SHP2 C-SH2 domain E139D
Test: enrichment score (SH2-bound / input frequency) (ratio); bacterial display of known human phosphotyrosine sites (pTyr-Var adds point mutants) read by sequencing; higher = stronger binding; tyrosines were phosphorylated by kinases first
Details: peptide library: pTyr-Var
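Note: displayed peptides selected on beads carrying the immobilized SH2 domain, with library peptides lacking any tyrosine serving as negative controls.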

Enrichment score, inactive:
SVTCTYPPALN [TP53_Y126_S127P] 0.68
SVVVPYERPEV [TP53_Y220_P222R] 0.899
SVVVLYEPPEV [TP53_Y220_P219L] 1.19
TSKLSYLDPRI [TOP1_Y723_N722S] 0.742
SVTCTYSPALK [TP53_Y126_N131K] 0.832
SVTCTFSPALN [TP53_Y126_Y126F] 1.1
SVTCTYSPALS [TP53_Y126_N131S] 1.23
LLNPRYNLPLD [TOM1L1_Y109] 0.992
LLNPSYNLPLD [TOM1L1_Y109_R108S] 1.33
SVTGTYSPALN [TP53_Y126_C124G] 0.766
SVTFTYSPALN [TP53_Y126_C124Y_YF] 0.945
SVVVPYEPSEV [TP53_Y220_P223S] 0.772
SVTCTYYPALN [TP53_Y126_S127Y] 0.779
SVTCTYSPALF [TP53_Y126_N131Y_YF] 0.922
SVTCTYSPALI [TP53_Y126_N131I] 1.03
SVVVPYEPLEV [TP53_Y220_P223L] 0.816
SVVVPYQPPEV [TP53_Y220_E221Q] 1.47
SVTCAYSPALN [TP53_Y126_T125A] 0.822

Molecular target: SHP2 C-SH2 domain wild-type
Test: as above
Details: peptide library: pTyr-Var

Enrichment score, inactive:
SVTCTYPPALN [TP53_Y126_S127P] 0.736
SVVVPYERPEV [TP53_Y220_P222R] 0.8
SVVVLYEPPEV [TP53_Y220_P219L] 1.01
TSKLSYLDPRI [TOP1_Y723_N722S] 0.689
SVTCTYSPALK [TP53_Y126_N131K] 1.08
SVTCTFSPALN [TP53_Y126_Y126F] 1.44
SVTCTYSPALS [TP53_Y126_N131S] 1.11
LLNPRYNLPLD [TOM1L1_Y109] 0.701
LLNPSYNLPLD [TOM1L1_Y109_R108S] 0.928
SVTGTYSPALN [TP53_Y126_C124G] 0.751
SVTFTYSPALN [TP53_Y126_C124Y_YF] 0.87
SVVVPYEPSEV [TP53_Y220_P223S] 0.865
SVTCTYYPALN [TP53_Y126_S127Y] 1.18
SVTCTYSPALF [TP53_Y126_N131Y_YF] 1.19
SVTCTYSPALI [TP53_Y126_N131I] 1.5
SVVVPYEPLEV [TP53_Y220_P223L] 0.665
SVVVPYQPPEV [TP53_Y220_E221Q] 0.903
SVTCAYSPALN [TP53_Y126_T125A] 1.01

Molecular target: SHP2 N-SH2 domain L43F
Test: as above
Details: peptide library: pTyr-Var

Enrichment score, inactive:
SVTCTYPPALN [TP53_Y126_S127P] 0.73
SVVVPYERPEV [TP53_Y220_P222R] 0.86
SVVVLYEPPEV [TP53_Y220_P219L] 1.28
TSKLSYLDPRI [TOP1_Y723_N722S] 0.907
SVTCTYSPALK [TP53_Y126_N131K] 0.95
SVTCTFSPALN [TP53_Y126_Y126F] 1.13
SVTCTYSPALS [TP53_Y126_N131S] 1.25
LLNPRYNLPLD [TOM1L1_Y109] 0.91
LLNPSYNLPLD [TOM1L1_Y109_R108S] 1.12
SVTGTYSPALN [TP53_Y126_C124G] 0.664
SVTFTYSPALN [TP53_Y126_C124Y_YF] 0.848
SVVVPYEPSEV [TP53_Y220_P223S] 0.786
SVTCTYYPALN [TP53_Y126_S127Y] 0.824
SVTCTYSPALF [TP53_Y126_N131Y_YF] 1.28
SVTCTYSPALI [TP53_Y126_N131I] 1.04
SVVVPYEPLEV [TP53_Y220_P223L] 0.77
SVVVPYQPPEV [TP53_Y220_E221Q] 1.04
SVTCAYSPALN [TP53_Y126_T125A] 0.845

Molecular target: SHP2 N-SH2 domain T42A
Test: as above
Details: peptide library: pTyr-Var

Enrichment score, inactive:
SVTCTYPPALN [TP53_Y126_S127P] 0.556
SVVVPYERPEV [TP53_Y220_P222R] 0.682
SVVVLYEPPEV [TP53_Y220_P219L] 1.01
TSKLSYLDPRI [TOP1_Y723_N722S] 0.936
SVTCTYSPALK [TP53_Y126_N131K] 0.727
SVTCTFSPALN [TP53_Y126_Y126F] 0.881
SVTCTYSPALS [TP53_Y126_N131S] 0.821
LLNPRYNLPLD [TOM1L1_Y109] 0.867
LLNPSYNLPLD [TOM1L1_Y109_R108S] 1.07
SVTGTYSPALN [TP53_Y126_C124G] 0.783
SVTFTYSPALN [TP53_Y126_C124Y_YF] 0.71
SVVVPYEPSEV [TP53_Y220_P223S] 0.681
SVTCTYYPALN [TP53_Y126_S127Y] 0.765
SVTCTYSPALF [TP53_Y126_N131Y_YF] 0.875
SVTCTYSPALI [TP53_Y126_N131I] 0.954
SVVVPYEPLEV [TP53_Y220_P223L] 0.826
SVVVPYQPPEV [TP53_Y220_E221Q] 0.793
SVTCAYSPALN [TP53_Y126_T125A] 0.726

Molecular target: SHP2 N-SH2 domain T52S
Test: as above
Details: peptide library: pTyr-Var

Enrichment score, inactive:
SVTCTYPPALN [TP53_Y126_S127P] 0.642
SVVVPYERPEV [TP53_Y220_P222R] 0.87
SVVVLYEPPEV [TP53_Y220_P219L] 1.09
TSKLSYLDPRI [TOP1_Y723_N722S] 0.784
SVTCTYSPALK [TP53_Y126_N131K] 0.716
SVTCTFSPALN [TP53_Y126_Y126F] 0.803
SVTCTYSPALS [TP53_Y126_N131S] 0.831
LLNPRYNLPLD [TOM1L1_Y109] 0.768
LLNPSYNLPLD [TOM1L1_Y109_R108S] 1.37
SVTGTYSPALN [TP53_Y126_C124G] 0.623
SVTFTYSPALN [TP53_Y126_C124Y_YF] 0.741
SVVVPYEPSEV [TP53_Y220_P223S] 0.746
SVTCTYYPALN [TP53_Y126_S127Y] 0.703
SVTCTYSPALF [TP53_Y126_N131Y_YF] 0.956
SVTCTYSPALI [TP53_Y126_N131I] 0.671
SVVVPYEPLEV [TP53_Y220_P223L] 0.687
SVVVPYQPPEV [TP53_Y220_E221Q] 1.03
SVTCAYSPALN [TP53_Y126_T125A] 0.85

Molecular target: SHP2 N-SH2 domain wild-type
Test: as above
Details: peptide library: pTyr-Var

Enrichment score, inactive:
SVTCTYPPALN [TP53_Y126_S127P] 1.04
SVVVPYERPEV [TP53_Y220_P222R] 0.824
SVVVLYEPPEV [TP53_Y220_P219L] 1.16
TSKLSYLDPRI [TOP1_Y723_N722S] 0.861
SVTCTYSPALK [TP53_Y126_N131K] 1.21
SVTCTFSPALN [TP53_Y126_Y126F] 1.69
SVTCTYSPALS [TP53_Y126_N131S] 1.05
LLNPRYNLPLD [TOM1L1_Y109] 0.807
LLNPSYNLPLD [TOM1L1_Y109_R108S] 1.74
SVTGTYSPALN [TP53_Y126_C124G] 0.779
SVTFTYSPALN [TP53_Y126_C124Y_YF] 1
SVVVPYEPSEV [TP53_Y220_P223S] 0.808
SVTCTYYPALN [TP53_Y126_S127Y] 1.25
SVTCTYSPALF [TP53_Y126_N131Y_YF] 1.58
SVTCTYSPALI [TP53_Y126_N131I] 1.52
SVVVPYEPLEV [TP53_Y220_P223L] 0.999
SVVVPYQPPEV [TP53_Y220_E221Q] 1.1
SVTCAYSPALN [TP53_Y126_T125A] 1.18

Reference: the supplement of paper PMC10369915
